This note sets out measurements from article PMC12040169 (PLOS Biology, 2025).

This is one part of the list.

In the test the test system is T1, C. trachomatis L2/434/Bu expressing GFP (CTL2-GFP).
T1 construct: L2/434/Bu GFP intracellular growth in HeLa cells
Set-up: species or system HeLa; C. trachomatis total inclusion area by high-content imaging, normalised to DMSO. The note with it: total inclusion area; 28.5 h, 10 µM; inhibitor. In a few lines: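 High-content images of fixed, Hoechst-stained infected cultures supply inclusion area and count (growth) plus nuclei number (viability), complementing bulk GFP/resorufin fluorescence. MIC determination is unchanged from the primary assay.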
As to `Cc1cc(C)n(CC(=O)N2CCNCC2c2cccc(Cl)c2)n1` (stereo not drawn) [CBK304116], the “% of control remaining” value amounted to 78.5087. The value for `CC(C)Nc1cccnc1N1CCN(C(=O)c2ccncc2)CC1` [CBK016714] was 62.6245. In the case of `Cn1cc(-c2ccc(OCC3CCN(C(=O)OC(C)(C)C)CC3)cn2)cn1` [CBK173498] it was 99.3938; in that of `CCC(=O)NC(Nc1cc(Cl)ccc1OC)(C(F)(F)F)C(F)(F)F` [CBK261342], 103.095.

With `CC(=O)c1ccc(NC(=O)NNS(=O)(=O)c2ccc(F)cc2)cc1` [CBK266944], the “% of control remaining” value is reported as 103.812. The value for `CC(C)(CN)CN(Cc1cccc(Cl)c1)C(=O)Nc1ccc2c(c1)OCO2` [CBK002482C] was 30.6252; that for `CN1CCC(CNC(=O)Cn2ccc3ccc(F)cc32)(N(C)C)CC1` [CBK282569] was 106.169. The value for `COc1ccc(CCN2CCC(CNC(=O)NCc3ccccc3)CC2)cc1OC` [CBK051511T] was 140.381.

Consider `CCC(=O)Nc1nc2ccccc2n1CCN1CCOCC1` [CBK261477], for which the “% of control remaining” value is 84.1832. In the case of `CN(C)C(=O)c1nccnc1-c1ccc(COc2ccc3c(c2)OCO3)cc1` [CBK050829] it was 101.863; in that of `Cc1nc(-c2nnc3ccc(Cl)nn23)c(Br)[nH]1` [CBK028706B], 63.8812. On to `Cc1cc(OCc2nc(-c3ccc(NC(=O)c4ccc5c(c4)OCO5)cc3)no2)ccc1Cl` [CBK266673], for which the “% of control remaining” value was 90.8947. In the case of `COc1ccc(C2=NN(c3ccc([N+](=O)[O-])cc3)C(=O)/C2=C/NCc2ccc3c(c2)OCO3)cc1` [CBK264598] it was 115.017; in that of `CCN(CC)C(=O)C1CCCN(C(=O)NCCc2c[nH]c3ccccc23)C1` (stereo not drawn) [CBK156140], 88.2121. The value for `CCN(CC)CCSc1nc(O)c(Cc2ccccc2)c(=O)[nH]1` [CBK072486] was 77.7106. In the case of `CN(C)CC1CN(c2nc(-c3ccncc3)nc3c2CCC3)CCO1` (stereo not drawn) [CBK305824] it was 82.093; in that of `O=C(O)C1CCN(C(=O)CCN2C(=O)[C@@H]3Cc4ccccc4CN3C2=O)CC1` [CBK286682], 117.002. On to `CN(Cc1cc(Br)cs1)C(=O)CCc1c[nH]c2ccccc12` [CBK298268], for which the “% of control remaining” value amounted to 42.6178. On to `CCCNC(=O)N1CCC(n2cnc3cccnc32)CC1` [CBK282282], for which the “% of control remaining” value was determined as 62.5193.

Consider `CCc1ncc(C(=O)N(Cc2ccccn2)CC2CCCO2)cn1` (stereo not drawn) [CBK307077], for which the “% of control remaining” value worked out at 34.6299. The value for `Cn1c(N2CC[C@H](O)C2)nc2cc(C(=O)NCCn3cccn3)ccc21` [CBK307328] was 77.2239; that for `COc1ccc2[nH]cc(CCNC(=O)[C@@H]3Cc4c([nH]c5ccccc45)C4(CCN(Cc5ccc(F)cc5)C4)N3)c2c1` (stereo partly drawn) [CBK066937] was 98.6303. In the case of `Nc1ncnc(NNC(=O)CNC(=O)c2ccccc2C(F)(F)F)c1[N+](=O)[O-]` [CBK267186] it was 135.981; in that of `Cc1cccc(C(C)(C)C)c1NC(=O)NCCc1cccs1` [CBK044530], 93.0024; in that of `CN(C)C(CNS(=O)(=O)c1cc2c(cc1Br)NC(=O)CO2)c1ccc(F)cc1` (stereo not drawn) [CBK298296], 92.5265. In the case of `Cc1ccc(S(=O)(=O)N(CC(=O)Nc2cccnc2)c2ccc(F)cc2)cc1` [CBK263968] it was 111.005; in that of `Cc1ccc(S(=O)(=O)NC[C@H]2O[C@@H](CC(=O)N3CCOCC3)[C@H](O)[C@@H]2O)cc1` [CBK288924], 81.2306; in that of `CC1CC(C)CN(C2CCN(Cc3ccccn3)CC2)C1` (stereo not drawn) [CBK264639G], 86.1178.

In the case of `C#CCNC(=O)N(C)C1CCN(c2ncnc3ccccc23)CC1` [CBK306109], the “% of control remaining” value worked out at 45.0949. For the molecule `CCSCCN1CCC(Oc2nccnc2OCc2ccc(Br)cc2F)CC1` [CBK161087], the “% of control remaining” value came out at 96.1406.

With `Cc1cc(C(=O)N2CCC3(CCN(Cc4ccccc4)C3)C2)n[nH]1` (stereo not drawn) [CBK137092T], the “% of control remaining” value amounted to 95.7244. In the case of `CC(C)C(=O)Nc1cccc(-c2cn3ccsc3n2)c1` [CBK096253] it was 117.866; in that of `Nc1n[nH]c(SCC(=O)N2CCN(C(c3ccccc3)c3ccccc3)CC2)n1` [CBK267893], 105.479. In the case of `CCOC(=O)CN1CCN(S(=O)(=O)c2ccc(F)c(F)c2F)CC1` [CBK044345] it was 104.154; in that of `CC(Oc1ccc(Cl)cc1Cl)C(=O)NC(=S)Nc1ccc2c(c1)C(=O)N(C)C2=O` (stereo not drawn) [CBK267356], 110.717. In the case of `CCCn1c(C(=O)Nc2cccnc2)cc2c(=O)n(C)c(=O)n(C)c21` [CBK287838] it was 108.711; in that of `O=C(c1ncoc1-c1ccc(F)cc1)N1CCN2CCCC2C1` (stereo not drawn) [CBK282399], 115.558.

Consider `CCCc1cc(C(=O)NCCCN)cc(CCC)c1OCc1ccccc1` [CBK001736C], for which the “% of control remaining” value was found to be 55.3004. With `Cc1ccccc1OCc1nnc(SCc2c(Cl)cccc2[N+](=O)[O-])n1C` [CBK265846], the “% of control remaining” value is listed as 121.389.

For `CCOC(=O)CN/C(=N/O)c1c(Cl)cccc1Cl` [CBK022374], the “% of control remaining” value is 63.2451. As for `FC(F)(F)c1cccc(OC2CCCNC2)n1` (stereo not drawn) [CBK113290], the “% of control remaining” value came out at 95.7103. As for `CC(=O)N1CC[C@@H]2NC(=O)[C@H]3C[C@H](NC(=O)c4ccc(F)c(Cl)c4)CN3C(=O)[C@H]21` [CBK289270], the “% of control remaining” value came to 116.111. The value for `CC(Oc1cccc(C#N)c1)C(=O)N1CCSCC1` (stereo not drawn) [CBK305748] was 96.0808. In the case of `O=C(O)CCN1C(=O)C(O)=C(C(=O)c2ccc(Cl)cc2)C1c1ccccc1[N+](=O)[O-]` (stereo not drawn) [CBK264553] it was 107.677; in that of `O=C(O)CCC(=O)Nc1ccc(N2CCN(CCO)CC2)cc1` [CBK078486], 97.4284; in that of `FC(F)(F)c1ccc2[nH]c(Cn3cncn3)nc2c1` [CBK007335], 88.0084. Regarding `CC[C@H]1CN(C(=O)C2CC2)CC[C@H]1CC(=O)NCc1ccc2c(c1)OCO2` [CBK289133], the “% of control remaining” value is 109.31.

Take `O=S(=O)(NCCc1ccncc1)c1ccc(Cl)c(Cl)c1` [CBK044438]: the “% of control remaining” value is recorded as 47.7361. Consider `CCOc1cc(/C=N\NC(=O)CNc2ccccc2C)cc(Br)c1O` [CBK262151], for which the “% of control remaining” value is 108.664. The value for `COCC(=O)Nc1nc2c(s1)C[C@]1(C)CC[C@@H]3[C@H](OC(=O)[C@H]3C)[C@H]1[C@@H]2C` [CBK289430] was 129.273; that for `CCCN1C(=O)N(CO)C2C1N(CO)C(=O)N2CCC` (stereo not drawn) [CBK263882] was 102.021; that for `O=C(Nc1cncc(OC2CCNCC2)n1)c1cnc2ccccc2c1` [CBK036377T] was 90.1101. For `Cc1ccc(Nc2nc(O)ns2)cc1` [CBK026011], the “% of control remaining” value is 40.8342. In the case of `CCCOC1CCCN(c2nccc(-c3cc(C(=O)O)ccn3)n2)C1` (stereo not drawn) [CBK307703] it was 42.0869; in that of `CSCCN1CCC2(CC1)CN(CCO)c1ccccc12` [CBK126771], 90.0118. The value for `O=C(NC1CC2(CCOCC2)Oc2ccccc21)c1ccco1` (stereo not drawn) [CBK285378] was 95.6884; that for `CCOc1ccc(CNc2ccc(C3c4ccsc4CCN3C(=O)COC)cc2)cc1` (stereo not drawn) [CBK286453] was 91.3651. In the case of `C[C@H](Cn1nc2c(cc1=O)CCCCC2)NC(=O)C1CCCC1` [CBK284546] it was 115.016.

In the case of `COc1ccc(-c2ccc3nnc(SCc4cccnc4)n3n2)cc1` [CBK287680], the “% of control remaining” value is given as 105.201. The value for `O=C(c1c[nH]nc1-c1cc2ccccc2o1)N1CCC(O)(C(F)(F)F)C1` (stereo not drawn) [CBK305549] was 60.5671; that for `COC(=O)c1ccc(N/C(C)=C/C(=O)c2ccc(C)o2)cc1` [CBK267057] was 91.1377; that for `CC1CCc2c(sc(NC(=O)c3ccn(C)n3)c2C#N)C1` (stereo not drawn) [CBK304682] was 42.6572. In the case of `CC(=O)Nc1ccc(S(=O)(=O)Nc2ccnc(N3CCN4CCCC4C3)n2)cc1` (stereo not drawn) [CBK000380C] it was 91.0598; in that of `O=[N+]([O-])c1ccc(N2CCN(S(=O)(=O)c3ccc4ccccc4c3)CC2)cc1` [CBK157773], 89.3071. The value for `CCCSc1ncc(Cl)c(C(=O)Nc2ccc(S(=O)(=O)N3CC(C)OC(C)C3)cc2)n1` (stereo not drawn) [CBK269055] was 90.0603; that for `OC(c1cccs1)C1CCN(Cc2ccc(Cn3cccn3)cc2)CC1` (stereo not drawn) [CBK307454] was 82.8068. On to `CN(C)C(=O)CN1CCN(C(=O)c2ccccc2C(=O)c2ccc(F)cc2)CC1` [CBK297921], for which the “% of control remaining” value was 138.979. As for `NC(=O)C1(N2CCCCC2)CCN(CC(=O)Nc2ccc(Br)cc2)CC1` [CBK268364], the “% of control remaining” value was determined as 108.214. In the case of `Fc1cc(Br)ccc1-c1cn(-c2ccc(Oc3ccccc3)cc2)nn1` [CBK113145] it was 106.196.

For the molecule `O=C(CCCC(=O)N1CCCC1)N1CCCC1` [CBK006992], the “% of control remaining” value is given as 15.3505. With `Cc1cc(NC(=O)CNC(=O)c2ccccc2)no1` [CBK073427], the “% of control remaining” value turned out to be 82.7445. The value for `O=C(O)c1[nH]c2ccccc2c1C(c1ccc(OC2CCCC2)cc1)c1c(C(=O)O)[nH]c2ccccc12` [CBK267789] was 106.286; that for `CCCn1nc(C)c(-c2cncn2CCN(C)C2CCCC2)c1C` [CBK281790] was 118.9; that for `CCC(CN1CCCC1)n1cncc1-c1cn(C)nc1C` (stereo not drawn) [CBK281459] was 90.8117. The value for `COc1cc(Nc2cncc(-c3ccc4ccccc4c3)n2)cc(OC)c1OC` [CBK065176] was 26.7927; that for `CN(C)CCNCc1ccccc1OC1CCCC1` [CBK278214C] was 97.7606; that for `NS(=O)(=O)c1ccc(NC(=S)Nc2nn(Cc3ccc(Cl)cc3Cl)cc2Cl)cc1` [CBK267020] was 104.183.

`CC(=O)c1c(C)oc2ccc(N(C(C)=O)S(=O)(=O)c3ccc(C(=O)O)cc3)cc12` [CBK299790]: the “% of control remaining” value amounted to 104.001.
